From the supplement of paper PMC8728848
Some of the results follow.

Tests used:
Assay in all cases: glycan array binding signal (z-score within array); higher = stronger binding
Settings in all cases: glycan notation: IUPAC condensed, linker removed; mutation: E41G
[1] = biological target: Fuc(a1-2)Gal(b1-4)GlcNAc(b1-3)Gal(b1-4)GlcNAc(b1-2)Man(a1-3)[Fuc(a1-2)Gal(b1-4)GlcNAc(b1-3)Gal(b1-4)GlcNAc(b1-2)Man(a1-6)]Man(b1-4)GlcNAc(b1-4)GlcNAc
Method in brief: (§1)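 Negative Z-scores can be read as non-binding. The Z-score is calculated within each array and then averaged across arrays of one protein sequence at different concentrations or buffers and across linkers. Arrays, 3228 in all, were curated from the Consortium for Functional Glycomics database and kept only where the protein sequence was available.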

[2] = biological target: Fuc(a1-2)Gal(b1-4)GlcNAc(b1-3)Gal(b1-4)GlcNAc(b1-3)Gal(b1-4)GlcNAc
Method in brief: as §1

[3] = biological target: Fuc(a1-2)Gal(b1-4)GlcNAc(b1-3)GalNAc
Method in brief: as §1

[4] = biological target: Fuc(a1-2)Gal(b1-4)GlcNAc(b1-3)[Fuc(a1-2)Gal(b1-4)GlcNAc(b1-6)]GalNAc
Method in brief: as §1

[5] = biological target: Fuc(a1-2)Gal(b1-4)GlcNAc(b1-3)[Fuc(a1-3)[Gal(b1-4)]GlcNAc(b1-6)]Gal(b1-4)Glc
Method in brief: as §1

[6] = biological target: Fuc(a1-2)Gal(b1-4)GlcNAc(b1-6)GalNAc
Method in brief: as §1

[7] = biological target: Fuc(a1-2)Gal(b1-4)GlcNAc6S
Method in brief: as §1

[8] = biological target: Fuc(a1-2)Gal(b1-4)[Fuc(a1-3)]GlcNAc
Method in brief: as §1

[9] = biological target: Fuc(a1-2)Gal(b1-4)[Fuc(a1-3)]GlcNAc(b1-2)Man(a1-3)[Fuc(a1-2)Gal(b1-4)[Fuc(a1-3)]GlcNAc(b1-2)Man(a1-6)]Man(b1-4)GlcNAc(b1-4)[Fuc(a1-6)]GlcNAc
Method in brief: as §1

[10] = biological target: Fuc(a1-2)Gal(b1-4)[Fuc(a1-3)]GlcNAc(b1-2)[Fuc(a1-2)Gal(b1-4)[Fuc(a1-3)]GlcNAc(b1-4)]Man(a1-3)[Fuc(a1-2)Gal(b1-4)[Fuc(a1-3)]GlcNAc(b1-2)Man(a1-6)]Man(b1-4)GlcNAc(b1-4)GlcNAc
Method in brief: as §1

[11] = biological target: Fuc(a1-2)Gal(b1-4)[Fuc(a1-3)]GlcNAc(b1-3)Gal(b1-4)[Fuc(a1-3)]GlcNAc
Method in brief: as §1

[12] = biological target: Fuc(a1-2)Gal(b1-4)[Fuc(a1-3)]GlcNAc(b1-3)Gal(b1-4)[Fuc(a1-3)]GlcNAc(b1-3)Gal(b1-4)[Fuc(a1-3)]GlcNAc
Method in brief: as §1

[13] = biological target: Fuc(a1-2)Gal(b1-4)[Fuc(a1-3)]GlcNAc(b1-3)GalNAc
Method in brief: as §1

[14] = biological target: Fuc(a1-2)Gal(b1-4)[Fuc(a1-3)]GlcNAc(b1-3)[Neu5Ac(a2-6)Gal(b1-4)GlcNAc(b1-6)]Gal(b1-4)Glc
Method in brief: as §1

[15] = biological target: Fuc(a1-2)Gal3S(b1-4)GlcNAc
Method in brief: as §1

[16] = biological target: Fuc(a1-2)Gal6S(b1-3)GlcNAc
Method in brief: as §1

[17] = biological target: Fuc(a1-2)Gal6S(b1-3)GlcNAc6S
Method in brief: as §1

[18] = biological target: Fuc(a1-2)Gal6S(b1-4)Glc
Method in brief: as §1

[19] = biological target: Fuc(a1-2)Gal6S(b1-4)Glc6S
Method in brief: as §1

[20] = biological target: Fuc(a1-2)[Gal(a1-3)]Gal
Method in brief: as §1

[21] = biological target: Fuc(a1-2)[Gal(a1-3)]Gal(b1-3)GalNAc
Method in brief: as §1

[22] = biological target: Fuc(a1-2)[Gal(a1-3)]Gal(b1-3)GalNAc(b1-3)Gal(a1-4)Gal(b1-4)Glc
Method in brief: as §1

[23] = biological target: Fuc(a1-2)[Gal(a1-3)]Gal(b1-3)GlcNAc
Method in brief: as §1

[24] = biological target: Fuc(a1-2)[Gal(a1-3)]Gal(b1-3)GlcNAc(b1-2)Man(a1-3)[Fuc(a1-2)[Gal(a1-3)]Gal(b1-3)GlcNAc(b1-2)Man(a1-6)]Man(b1-4)GlcNAc(b1-4)GlcNAc
Method in brief: as §1

[25] = biological target: Fuc(a1-2)[Gal(a1-3)]Gal(b1-3)GlcNAc(b1-2)Man(a1-3)[Fuc(a1-2)[Gal(a1-3)]Gal(b1-3)GlcNAc(b1-2)Man(a1-6)]Man(b1-4)GlcNAc(b1-4)[Fuc(a1-6)]GlcNAc
Method in brief: as §1

[26] = biological target: Fuc(a1-2)[Gal(a1-3)]Gal(b1-3)GlcNAc(b1-3)GalNAc
Method in brief: as §1

[27] = biological target: Fuc(a1-2)[Gal(a1-3)]Gal(b1-3)GlcNAc(b1-6)GalNAc
Method in brief: as §1

[28] = biological target: Fuc(a1-2)[Gal(a1-3)]Gal(b1-4)Glc
Method in brief: as §1

[29] = biological target: Fuc(a1-2)[Gal(a1-3)]Gal(b1-4)GlcNAc
Method in brief: as §1

[30] = biological target: Fuc(a1-2)[Gal(a1-3)]Gal(b1-4)GlcNAc(b1-2)Man
Method in brief: as §1

B1: CVN-E41G (protein)
chain: MHHHHHHENLYFQSGNFSQACYNSAIQGSVLTSTCIRTNGGYNTSSIDLNSVIGNVDGSLKWQGSNFIETCRNTQLAGSSELAAECKTRAQQFVSTKINLDDHIAAIDGTLKYE
glycan array binding signal (z-score) [1]: -0.109
glycan array binding signal (z-score) [2]: -0.145
glycan array binding signal (z-score) [3]: -0.141
glycan array binding signal (z-score) [4]: -0.158
glycan array binding signal (z-score) [5]: -0.142
glycan array binding signal (z-score) [6]: -0.14
glycan array binding signal (z-score) [7]: -0.144
glycan array binding signal (z-score) [8]: -0.159
glycan array binding signal (z-score) [9]: -0.033
glycan array binding signal (z-score) [10]: 0.014
glycan array binding signal (z-score) [11]: -0.107
glycan array binding signal (z-score) [12]: -0.033
glycan array binding signal (z-score) [13]: -0.07
glycan array binding signal (z-score) [14]: -0.162
glycan array binding signal (z-score) [15]: -0.177
glycan array binding signal (z-score) [16]: -0.148
glycan array binding signal (z-score) [17]: -0.076
glycan array binding signal (z-score) [18]: -0.173
glycan array binding signal (z-score) [19]: -0.023
glycan array binding signal (z-score) [20]: -0.162
glycan array binding signal (z-score) [21]: -0.152
glycan array binding signal (z-score) [22]: -0.088
glycan array binding signal (z-score) [23]: -0.159
glycan array binding signal (z-score) [24]: 0.17
glycan array binding signal (z-score) [25]: 0.606
glycan array binding signal (z-score) [26]: -0.166
glycan array binding signal (z-score) [27]: -0.164
glycan array binding signal (z-score) [28]: -0.166
glycan array binding signal (z-score) [29]: -0.18
glycan array binding signal (z-score) [30]: -0.14
